Source: the RNAGym collection of RNA variant scans (doi:10.1073/pnas.2313332121)
Variants at the background level are over-represented here.

B1: TPR 5TU (parent)
chain: GGAUCUUCUCGAUCUAACAAAAAAGACAAAUCUGCCACAAAGCUUGAGAGCAUCUUCGGAUGCAGAGGCGGCAGCCUUCGGUGGCGCGAUAGCGCCAACGUUCUCAACUAUGACACGCAAAACGCGUGCUCCGUUGAAUGGAGUUUAUCAUG

Variants of: B1
Assay: polymerase ribozyme fitness, log enrichment relative to wild type (log ratio); higher = more active; in vitro selection for triplet polymerase activity
Procedure, shortened: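 Mutant libraries for each subunit of a heterodimeric triplet polymerase ribozyme were made by PCR and then transcribed. Each library underwent one round of in vitro selection in triplicate: annealing with a biotinylated primer, the partner subunit and triplets, frozen incubation at −7 °C, gel excision of extended constructs, streptavidin-bead capture and RT-PCR. Input and output libraries were Illumina-sequenced, and only genotypes with ≥10 input reads and ≥1 read per output were kept. Fitness is the logarithm, base 2, of genotype enrichment over wild-type enrichment, computed from inverse-variance-weighted replicate averages.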

Variant	polymerase ribozyme fitness (log ratio)
A22G C72A G86C C87A A110U U127C C132A U146G	≤ -4.2
A22G C87G A142C	≤ -4.2
A22U A52G U53A A107G	≤ -4.2
A22U A24G U31A U56G C79U U90G C95U A97C A120U C125G	≤ -4.2
A22G C43U U44C C54A A73U C87U U104G C131A	≤ -4.2
A22C A52C U56A A66G G83C G86U U102C U134A A137G	≤ -4.2
A22U G58C C93U A107C A120U G126A	≤ -4.2
A22C A47U A52C A73U C87U U102G U104G	≤ -4.2
A22C G59C G83A A89U C108A	≤ -4.2
A22G C87G	≤ -4.2
A22U C123G	-0.0344
A22C U33A A40G C54U C99G	≤ -4.2
A22G A23G A24C C63G G83A C103A A107U	≤ -4.2
A22G G50C G71U C76A C85U G100C U144G	≤ -4.2
A22C C51U G84U	-2.78
A22U C79G U102G A110U	≤ -4.2
A22U A24C U31C A47C U102G	≤ -4.2
A22C G74C C85U A91U U101C A106C U139C	≤ -4.2
A22C G46C A49C C125U	≤ -4.2
A22G C54A C87A C105G	≤ -4.2
A22U A26U	-2.88
A22U G50U C72A A91U C114A	≤ -4.2
A22C U31G G48A U109G C125U G136U	≤ -4.2
A22C U33A G50A A66U C93U G100C A138G C149A	≤ -4.2

Variant	polymerase ribozyme fitness (log ratio)
A22G U33C C35U A66C	≤ -4.2
A22G G86U G94C	≤ -4.2
A22U C125U	-0.442
A22U C27G G42A C87U U130G	≤ -4.2
A22U G84U	-1.67
A22G A23U G65A G68A G83A A119C G126A	≤ -4.2
A22G A23G G50U A52C C57U G59U C96A C99U C132A G143C	≤ -4.2
A22G C69A C87G C129A U130A	≤ -4.2
A22U C27A A49G C63A C69G G74A C116G C131U A138C	≤ -4.2
A22U A26G C85A C95U A115U	≤ -4.2
A22U C96U	0.237
A22U C96A	-0.026
A22C U55A C93G C99U C132G A142G	≤ -4.2
A22G U33A A52C G74C G143C	≤ -4.2
A22G U56A A66U G88C C95G C118A U139A	≤ -4.2
A22C G25A C51U A66C C85G C93U C116A	≤ -4.2
A21U U82C	0.17
A22U G58C A66U C76U G86A A113G	≤ -4.2
A22C A39C U55A U102G C129U	≤ -4.2
A22C A49C C125A	≤ -4.2
A22G C76U C87G C103A A113U A120G	≤ -4.2
A22U C75G C93G	≤ -4.2
A22U G50U C96G	0.467
A22U C32G A41U G68U U90C G94U C105G	≤ -4.2

Variant	polymerase ribozyme fitness (log ratio)
A22C A28G G88C G117C C149U	≤ -4.2
A22C A26C A49C U56A G59U G68U C85U G86U G94U A97G U134A	≤ -4.2
A22C A24G C76G	≤ -4.2
A22C G92C C114U A150C	≤ -4.2
A22C G92C U109C U148A	-4.16
A22G U31C G94C	0.086
A22G G117A	1.13
A22U G84A U90G A91G A119U G143A	≤ -4.2
A22U C57U G70A G81C G83C G100C A106C G133C	≤ -4.2
A22G C36A A119G	≤ -4.2
A22C C32G C43G G92A C114U C118G U139A	≤ -4.2
A22C C76G G92C C105G U145C	≤ -4.2
A22U C72G G92A A150U	≤ -4.2
A22U G92C C93U A119G	-3.96
A22C C43U C75A C87U G128U	≤ -4.2
A22G G25U A30U G50A C57A G70C C93G A113C	≤ -4.2
A22U A23C A24C G48C G67U G86U C95G C96U C116U	≤ -4.2
A22C U53G C57A C95G U134G U144C	≤ -4.2
A22U A23U G25A C38A G68U U78G G80U G92A G128A G141C G143C	≤ -4.2
A22U C36A G83A U145A	≤ -4.2
A22G C85A C87G A89G G124C U139G	≤ -4.2
A22C A29C C76U C95A A97U U148G	≤ -4.2
A22G U45G G50A C54U G94C C131G A138U	≤ -4.2
A22G G50U U56G G58U C76U A122G	-4.16

Variant	polymerase ribozyme fitness (log ratio)
A22U A29U A40U G42C C43G C87A G140U	≤ -4.2
A22G A66U C85U A115U U139G U148C	≤ -4.2
A22G C93G C105G A110G G136U	≤ -4.2
A22G A37C C76G C85U	≤ -4.2
A22C A29U A64U G70A G81A G84A	≤ -4.2
A22U G50U C96G U145G	-0.544
A22G U56A C96G U101C G143A U148A	≤ -4.2
A22U G80A C87U U104G G126C	≤ -4.2
A22U A49U	-0.913
A22C C38A U44G C75A G84A G117A U135A U151G	≤ -4.2
A22U A97G	0.0508
A22C C35U G42C C57G C95A A97C U101G G152A	≤ -4.2
A22U A37C G83C C114G	-3.92
A22U A30C A73C A91G	≤ -4.2
A22G C85U U145C A147C A150C	≤ -4.2
A22C A49C G58C G94C A98G C105G	≤ -4.2
A22G U56A G84U C103A	≤ -4.2
A22G U33G A91G G92A G117A	≤ -4.2
A21U U53A C87U U145C U151A	≤ -4.2
A22U A37U A52G G59A C87G G88C C114U U134G G141U	≤ -4.2
A22G U56A C85A G126A U130A	≤ -4.2
A22U G86U	-1.05
A22C A40U A52C G81U A89U G92C G94A C95A A121U	≤ -4.2
A22G A39U A41C C43A G58C A60C C93U G112C A121C	≤ -4.2

Variant	polymerase ribozyme fitness (log ratio)
A22U A23G A52G G59C C72A C87A G88U C149A	≤ -4.2
A22C C27G A66U U145C	≤ -4.2
A22U A89U	0.229
A22C C27U G46A A107U G140C	≤ -4.2
A22U G48U A49U G74C C76A G100A G133U	≤ -4.2
A22U A29C A47G U134C U139A	≤ -4.2
A22C A29U A41G G50C U77A C85U C93G G141C	≤ -4.2
A22U A64G A66U	≤ -4.2
A21U U56A C75A G94C G100A U127C U146A	≤ -4.2
A22C A49C G80C	≤ -4.2
A22U C32A G59U G71A U82C C95U C96G U148C	≤ -4.2
A22C A28U G58A A66U C99U U104G	≤ -4.2
A22U A52C G58C G84U C99A	≤ -4.2
A22U A52G C75U G83U U134C A142C	-3.51
A22G U53A C69U C75G G84U	≤ -4.2
A22U A30U U31C A49C A52C C76A C79U C93G	≤ -4.2
A22C A52G A106C C118U A142G	-3.06
A22C G42U A49G C51U G92A U130G	≤ -4.2
A22C A29U G58C C63U G124U U148C	≤ -4.2
A22C A47C A49C A52U G88U C118U	≤ -4.2
A22G A91U G133C	≤ -4.2
A22U G46A C79G G80U G92A A150C	≤ -4.2
A22U A41U	0.0369
A22U C27G U45A G58C G62A A64C G133A U134A A147C	≤ -4.2

Variant	polymerase ribozyme fitness (log ratio)
A22C U44A G86U	≤ -4.2
A21U U55G G70A C93A	≤ -4.2
A22C C69G G81C	-1.85
A22C G62U A73U G88U C99U C118A U144C	≤ -4.2
A22C C27U A52C	-2.64
A22C A41C G50A A115G	-3.63
A22G C27A A29G C38U G50C C72U G84A C118A	≤ -4.2
A22U C54U U56C A73G G94U U127A G140U	≤ -4.2
A22G U144C	0.51
A22U G74C C118U	≤ -4.2
A22U A41C G70C U82G	≤ -4.2
A22C A24C A41C A52C C85G G88U A89U	≤ -4.2
A21U U33G G46A C79U G83A A107C G117A A142G	≤ -4.2
A22G U33A U55G G58C C79G A97G U134A	≤ -4.2
A22G C69G C95A C96G U139A A142C	≤ -4.2
A22U C35G G42A C69A C93G A106U C131G	≤ -4.2
A22U A66C C79G G80A G84U C85A G124A	≤ -4.2
A22C A52G G71A C79G C87G C99G C114G U127G C129A A142C	≤ -4.2
A22C G92C G117C U148G	≤ -4.2
A22C A23G C93G C149U	≤ -4.2
A22U C54U A60C C85G G143C	≤ -4.2
A22G A39C A47G C85A	≤ -4.2
A22G G74C G94C C125U	≤ -4.2
A22U C51U A137G A147C	-2.48

Variant	polymerase ribozyme fitness (log ratio)
A22U G50U C54U A66C A91G G92U A138G	≤ -4.2
A22U A26G C38U U56A G88U G136A	≤ -4.2
A22G G84U U127G	≤ -4.2
A22U A26U U56A G74C U102G	≤ -4.2
A22C C76A G128U C129U	≤ -4.2
A22C C43A G46U C99A G140C	≤ -4.2
A22C G50U G67U G74U G92C C149G	≤ -4.2
A22C C35A A52U C57U G67U A91U A97C C118G	≤ -4.2
A22C A60G C87U	0.179
A22U A30U C95U U134A	≤ -4.2
A22C C35G U44A A60G C76A C95U G128A A150C U151G	≤ -4.2
A22C A28G C43A A52C G80C U82A A98G C114U U135G G136A G141C U148G	≤ -4.2
A22U G42C A47U A60C G81A G88C A97C U134G U144A U145C	≤ -4.2
A22C A28U G58C A91C	≤ -4.2
A22G A49U G58C U77C C87U U90C C95G U104A C116G	≤ -4.2
A22C C27G C99U A106U G140U A147G	≤ -4.2
A22C C54A G88U C96G A98U G152U	≤ -4.2
A22U A39U A52U G67U C95U C118U C125A A142G	≤ -4.2
A22U G94A	-0.557
A22C C85G C129A U145C	≤ -4.2
A22G G46C C87A U101G G141U	≤ -4.2
A22C G34U U55G G80C C95A	≤ -4.2
A22G G92A C108G	≤ -4.2
